# Measurements taken from PubChem BioAssay AID1240 (Sanford-Burnham Center for Chemical Genomics, 2008).
# Screen size: about 50,000 compounds; about 800 (1.6%) showed an effect of 50% or more. Some of the results follow.
# Biological target: Bcl-2-like protein 10 (Homo sapiens) (UniProt Q9HD36)
# Assay: Phenotype converters, Bcl-B/TR3 peptide binding displacement, primary biochemical FP (AID 1240);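 note: 0% = Bcl-B with tracer peptide and DMSO and 100% = tracer peptide lacking Bcl-B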
# Details: GST-Bcl-B / FITC-TR3 peptide fluorescence polarization; stronger effect = higher value; compound at 3.75 mg/L
# UniProt Q9HD36, sequence (Q9HD36 whole entry, looked up): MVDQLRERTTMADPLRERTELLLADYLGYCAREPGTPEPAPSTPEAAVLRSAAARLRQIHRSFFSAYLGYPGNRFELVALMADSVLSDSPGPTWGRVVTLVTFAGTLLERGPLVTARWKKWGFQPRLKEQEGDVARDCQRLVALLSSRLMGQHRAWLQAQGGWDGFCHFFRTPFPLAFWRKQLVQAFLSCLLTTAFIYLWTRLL
row,Compound,displacement [%]
1,CC1(C)CC(=O)C(C(C2=C(O)CC(C)(C)CC2=O)c2ccc(OCc3ccccc3)cc2)C(=O)C1 (centres undefined),-4.2
2,CCOc1cccc2c1N(C(=O)c1ccc(OC)cc1)C(C)(C)C(=S)C2=C1SC(C(=O)OC)=C(C(=O)OC)S1,9.6
3,O=[N+]([O-])c1ccccc1N/N=C/c1ccccc1OCc1ccccc1,-14
4,O=C1N=c2ccccc2=C1c1c(O)n(-c2ccc(Cl)c(Cl)c2)[nH]c1=O,20.3
5,CCOC(=O)c1ccc(-c2ccc(/C=C3\Sc4ccccc4C3=O)o2)cc1,-37.4
6,CN(C)/C=C1\N=C(c2ccccc2Cl)OC1=O,-1.7
7,O=C1C(Cc2ccccc2)S/C(=N/N=C/c2cccc([N+](=O)[O-])c2)N1c1ccccc1 (centres undefined),3.8
8,COc1cc(C(=O)NCCc2cccc(Cl)c2)cc(OC)c1OC,0.1
9,O=C(NCCNc1ccc([N+](=O)[O-])cc1Cl)c1ccccc1Cl,14.7
10,COc1cc(C(=O)Nc2cc(Cl)ccc2C)c([N+](=O)[O-])cc1OC,11.6
11,Cc1cc(=O)oc2c(C)c(OCC(=O)c3ccc(Cl)cc3)ccc12,12.8
12,COc1cc(NS(=O)(=O)c2ccc3ccccc3c2)cc(OC)c1,10.5
13,CC1CC(C)CN(S(=O)(=O)c2ccc(F)cc2)C1 (centres undefined),-9
14,COc1cccc(N2C(=O)/C(=C/c3cccc([N+](=O)[O-])c3)SC2=S)c1,34.2
15,O=C1NC(=S)NC(=O)C1=Cc1cc2c(cc1Cl)OCO2,4.9
16,CCCOc1cccc(C(=O)Nc2cccc(S(N)(=O)=O)c2)c1,-2.6
17,O=c1c(Cl)c(Cl)cnn1Cc1ccccc1Cl,15.9
18,COc1cc(OC)cc(C(=O)O/N=C(\c2ccncc2)c2ccc([N+](=O)[O-])cc2)c1,10.5
19,Cc1nc2ccccc2c(=O)n1N1C(=O)CCCC1=O,11
20,O=C(c1nn2c(c1Cl)NC(c1cccs1)CC2C(F)(F)F)N1CCN(c2ccc(F)cc2)CC1 (centres undefined),12.3
21,COC(=O)c1c(NC(=O)c2ccc([N+](=O)[O-])cc2Cl)sc2c1CCCCCC2,-6.6
22,C(=N\n1cnnc1)/c1ccc(OC2CSC2)cc1,1.1
23,COc1cc(CC(=O)O)c([N+](=O)[O-])cc1OC,9.8
24,CCOC(=O)c1ccc(N2C(=O)c3cccc4c(C(=O)O)ccc(c34)C2=O)cc1,0.8
25,CCN(CC)c1ccc(C(=O)N2CCN(Cc3ccccc3)CC2)cc1,-2.8
26,O=C(N=Nc1c(O)n(CN2CCCCCC2)c2ccccc12)c1ccncc1,16.8
27,O=C(CCNc1ccc(Br)cc1)c1ccc([N+](=O)[O-])cc1,-16.2
28,CC(=O)NC1=NN(C(C)=O)C(c2ccc(OC(C)=O)cc2)S1 (centres undefined),-3.4
29,CCOC(=O)C1=C(C)N=c2s/c(=C\c3ccc(N(CC)CC)o3)c(=O)n2C1c1ccc(OC)c(OC)c1 (centres undefined),-25
